Measurements as given in the supplement of paper PMC11417369.
± gives the standard deviation of the averaged measurements. The list shows a part of the results.

Tested on: PfAP2-LT AP2 domain (GST-tagged)
Test: gcPBM binding intensity (ln(normalized median fluorescence intensity)); higher = stronger DNA binding
Method in brief: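 Binding intensity values are the highest Masliner-normalised natural-log median intensity among replicate spots of either probe orientation. The binding step lasted 1 h in 1× PBS with 1% milk, 0.2 mg/ml BSA, 0.5% salmon testes DNA and 0.03% Triton X-100, using GST-tagged P. falciparum DNA-binding domains expressed in E. coli on an Agilent 4 × 180k array of primer-extended double-stranded 36-bp intergenic genomic probes plus negative controls. Alexa488 anti-GST antibody and a 488 nm scan detected bound protein.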

“TTAAAAGTTATGGATACACACATATAAATATAGATT [CACACA_site7175]” and “TTAATAAATATGTTTACACACGAAAATACATTTTTT [CACACA_site8245]” are within error of each other in “gcPBM binding intensity (ln)” value: 8.85 ± 0.41 for the first, 8.76 ± 0.5 for the second.

“TCGATTAAAACACAAAAATATAAATACATTGATAAA [TGCATGCA_negctrl_site523]” and “TAATTTTCATAATTTTGTACTTAACGTTTTACCTTG [XGTACX_site8048]” are within error of each other in “gcPBM binding intensity (ln)” value: 8.56 ± 0.52 for the first, 8.86 ± 0.59 for the second.

First: ACATATATATATATATATATATATATATATTCTTAA [CACACA_negctrl_site930]
Second: ATTTTAATTTTTTAAGTATTATATGAATATTTATTA [TGCATGCA_negctrl_site142]
The “gcPBM binding intensity (ln)” value of the first is higher: 9.34 ± 0.3 for the first, 8.35 ± 0.5 for the second.

GTCTAAAAATAAAAAGTGCATTTGTTTAATATTTTG and “TGATTGTATTAAAATGCACACATATCAAGAGGAATT [CACACA_site7985]” are within error of each other in “gcPBM binding intensity (ln)” value: 8.5 ± 0.47 for the first, 9.03 ± 0.35 for the second.

“TTAATTTTTTTTTTTTGTACTCATATGTAATTCATC [XGTACX_site3071]” and “ATTAAAACAAATATGTGTACATAAAAATATATATAT [XGTACX_site8394]” are within error of each other in “gcPBM binding intensity (ln)” value: 8.66 ± 0.58 for the first, 8.97 ± 0.47 for the second.

“TATTATTATTATTATTTTAAAAGAAATAAAAATATG [XGTACX_negctrl_site119]” and “TTTTAATTTTGTTGTTGTACAAATAACATGTGAGGG [XGTACX_site4401]” are within error of each other in “gcPBM binding intensity (ln)” value: 8.02 ± 0.46 for the first, 8.72 ± 0.38 for the second.

“ATATACATTAAATGAACACACATAAATAAATTACAT [CACACA_site2852]” and “TATTTTATCATTTTTTTTATGTCTTTATTTCACTTG [CACACA_negctrl_site1398]” are within error of each other in “gcPBM binding intensity (ln)” value: 9.11 ± 0.47 for the first, 8.8 ± 0.61 for the second.

“CTGTGTTTTGGTTGTACACACGCTACATTATATATT [CACACA_site5487]” and “AACACATAAAAAAGGTGTACCATAAAATATACATAC [XGTACX_site4478]” are within error of each other in “gcPBM binding intensity (ln)” value: 9.36 ± 0.39 for the first, 9.08 ± 0.54 for the second.

“ATATATATATATATATCATTTATTTAAAAATTTTTT [TGCATGCA_negctrl_site228]” and CTCATTTTTGTACAGGTGCACTTATCGTTACACTAT are the same in “gcPBM binding intensity (ln)” value: 9.265 ± 0.078 for the first, 9.27 ± 0.46 for the second.

Compared with “ATATACACATTAATAACACACAATATGATAACAAAT [CACACA_site7670]”, “AATCCTTACGAACACACACACACGAATAAATAAAAA [CACACA_site6363]” is higher in “gcPBM binding intensity (ln)” value: 9.21 ± 0.35 for the first, 9.91 ± 0.26 for the second.

“TAGAATTAAGTTATTGCACACAGGAAAAGTTTCATA [CACACA_site1634]” and “TCTTCGAAACTATCACTCTCACAATTCATTTATTTT [TGCATGCA_negctrl_site156]” are within error of each other in “gcPBM binding intensity (ln)” value: 8.8 ± 0.41 for the first, 8.77 ± 0.52 for the second.

“ATAAATAAGAAAAATTGTACAATATTTTTTAGGATA [XGTACX_site3163]” and “AAAAGTTTAAGTTTTCGAAAATTTACCAAAAAAAAA [CACACA_negctrl_site1644]” are within error of each other in “gcPBM binding intensity (ln)” value: 8.62 ± 0.42 for the first, 8.4 ± 0.67 for the second.

“GTGCATAAATCATACACACACACATATATAAATATA [CACACA_site7188]” and “AAAGTTTTTATAAAAAAAAAAATAAATACCATATAT [XGTACX_negctrl_site113]” are within error of each other in “gcPBM binding intensity (ln)” value: 9.77 ± 0.33 for the first, 9.07 ± 0.52 for the second.

“GTGTTTTTATGTGAATGTACATATTTACTATCACAC [XGTACX_site2388]” and “TACTATAACCCACATACACACAAAAAAAAAAAAAAA [CACACA_site4454]” are within error of each other in “gcPBM binding intensity (ln)” value: 9.21 ± 0.28 for the first, 9.04 ± 0.42 for the second.

First: TATACAGATGGACACACACACATAAATAAATATATA [CACACA_site4863]
Second: TTTATTTTTAACAGTGCACACATAACTTAATTATAT [CACACA_site8681]
The “gcPBM binding intensity (ln)” value of the first is higher: 9.82 ± 0.3 for the first, 9.05 ± 0.4 for the second.

“TATTATATATTTAATAGTACATATAAAATAATAAGG [XGTACX_site4823]” and TGGTTTATTTATTAAGTGCATAAATGCAATATATAT are within error of each other in “gcPBM binding intensity (ln)” value: 8.55 ± 0.47 for the first, 8.59 ± 0.36 for the second.

First: TTAACTTCTTTAAAATGTACATATATTAAATAATAA [XGTACX_site3391]
Second: AAAAAATATAGATGCACACACAAAAAAACAAATTAA [CACACA_site6718]
The “gcPBM binding intensity (ln)” value of the first is lower: 8.27 ± 0.35 for the first, 9.23 ± 0.43 for the second.

“TTTATGTAATATACATGTACAGAATATAAAATATAT [XGTACX_site6906]” and “TATTCTTACATCACCTCACACATTTAATATTCCTTA [CACACA_site4693]” are within error of each other in “gcPBM binding intensity (ln)” value: 8.73 ± 0.41 for the first, 8.83 ± 0.51 for the second.

“ATATATATATATCAGAGTACATTCTTTAAAATATAT [XGTACX_site5915]” and “AGATTTTGAAATTATAAAAAAATTTCACTTCATTTA [CACACA_negctrl_site888]” are within error of each other in “gcPBM binding intensity (ln)” value: 8.76 ± 0.12 for the first, 8.22 ± 0.47 for the second.

Going from “GTATTATTATTTTATGCATGTACATTGAATTATATT [TGCATGCA_site34]” to “AAATAAAACAGACACACACACACATACACAAAAAAA [CACACA_site7753]”, the “gcPBM binding intensity (ln)” value rises from 9.03 ± 0.38 to 10.1 ± 0.22.

“TATAAATATGTATATGCATGTGGAATATATAATTAA [TGCATGCA_site226]” and “ATATGAGTATAAAAATGTACGGAGCAACTAAATATA [XGTACX_site620]” are within error of each other in “gcPBM binding intensity (ln)” value: 8.79 ± 0.35 for the first, 9.03 ± 0.45 for the second.

“TGTCACCTATTTTTTTGTACGTATGTCCATTTTTTT [XGTACX_site4368]” and “ATTACAACCACATTGACATGCAAATGTAGAGGGGGA [TGCATGCA_site694]” are within error of each other in “gcPBM binding intensity (ln)” value: 9.15 ± 0.62 for the first, 9.43 ± 0.085 for the second.

“AAAAAAAAAGAGGCGTGTACATATATAATTTAAATT [XGTACX_site6827]” and “TGTTCTAATATTTGTTGTACATTTACATTTCTCTCT [XGTACX_site2585]” are within error of each other in “gcPBM binding intensity (ln)” value: 9.04 ± 0.52 for the first, 9.01 ± 0.42 for the second.

“TTATTAAAGTATAACTGTACATGCGAGTAAAAGAAT [XGTACX_site7388]” and “ATAATAGAAACAAACAGTACACATACCTAAAAGGAA [XGTACX_site8647]” are within error of each other in “gcPBM binding intensity (ln)” value: 9.01 ± 0.57 for the first, 8.97 ± 0.49 for the second.

First: TATTTTATTTCAAATCTTAATAATTGTAATTCTTCA [XGTACX_negctrl_site442]
Second: TGTGTAATACATAATACACACATGTATATGTCGCAT [CACACA_site4757]
The “gcPBM binding intensity (ln)” value of the first is lower: 8.28 ± 0.47 for the first, 9.21 ± 0.26 for the second.

“ATTTTTAAAATAAATACATGCATATATTTATATGTT [TGCATGCA_site394]” and “TTTTAATTAGAAATCATACACACATATATATATATA [CACACA_site174]” are within error of each other in “gcPBM binding intensity (ln)” value: 8.69 ± 0.42 for the first, 9.25 ± 0.17 for the second.

First: ATTTACATAAACGTCTGTACTAATATACAATTTTCT [XGTACX_site1700]
Second: TATATATAGAAACACACACACATATATATATATATT [CACACA_site4115]
The “gcPBM binding intensity (ln)” value of the first is lower: 8.8 ± 0.45 for the first, 9.73 ± 0.24 for the second.

“CATAAAATTGTATTTTGTACACATTTTGTATACATT [XGTACX_site5705]” and “AATAGGATATGGTACATTTTTTGTATACTTTTTGTT [CACACA_negctrl_site1804]” are within error of each other in “gcPBM binding intensity (ln)” value: 8.95 ± 0.36 for the first, 8.91 ± 0.47 for the second.
